In the supplement of paper PMC8047034:
Structures can show the parent of a compound that is named as a salt. The list shows a part of the results. Repeats are few or missing, and single values can be far off.

What was measured:
OVCAR4 = assay: log2 surviving fraction (library drug vs vehicle, or drug + carboplatin vs carboplatin alone; relative to plate median); ovarian cancer lines: OVCAR4 is platinum-sensitive and Ov4Carbo platinum-resistant; higher = more cell survival; conditions: library drug concentration 10 µM, 7 days
Ov4Carbo = assay: as above; conditions: library drug concentration 10 µM, 7 days

## CC[C@H]1OC(=O)C[C@@H](O)[C@H](C)[C@@H](O[C@@H]2O[C@H](C)[C@@H](O[C@H]3C[C@@](C)(O)[C@@H](O)[C@H](C)O3)[C@H](N(C)C)[C@H]2O)[C@@H](CC=O)C[C@@H](C)C(=O)/C=C/C(C)=C/[C@@H]1CO[C@@H]1O[C@H](C)[C@@H](O)[C@@H](OC)[C@H]1OC [Tylosin tartrate]
OVCAR4; carboplatin co-treatment 0 µM
  log2 surviving fraction: -0.137
OVCAR4; carboplatin co-treatment 5 µM
  log2 surviving fraction: 0.495
Ov4Carbo; carboplatin co-treatment 0 µM
  log2 surviving fraction: 1.4
Ov4Carbo; carboplatin co-treatment 5 µM
  log2 surviving fraction: 1.25

## CC[C@H]1OC(=O)[C@H](C)[C@@H](O[C@H]2C[C@@](C)(OC)[C@@H](O)[C@H](C)O2)[C@H](C)[C@@H](O[C@@H]2O[C@H](C)C[C@H](N(C)C)[C@H]2O)[C@](C)(O)C[C@@H](C)CN(C)[C@H](C)[C@@H](O)[C@]1(C)O [Azithromycin (Zithromax)]
OVCAR4; carboplatin co-treatment 0 µM
  log2 surviving fraction: -0.277
OVCAR4; carboplatin co-treatment 5 µM
  log2 surviving fraction: 0.107
Ov4Carbo; carboplatin co-treatment 0 µM
  log2 surviving fraction: -0.151
Ov4Carbo; carboplatin co-treatment 5 µM
  log2 surviving fraction: -0.635

## OC(CCN1CCCC1)(c1ccccc1)C1CCCCC1 (stereo not drawn) [Procyclidine HCl]
OVCAR4; carboplatin co-treatment 0 µM
  log2 surviving fraction: -1.08
OVCAR4; carboplatin co-treatment 5 µM
  log2 surviving fraction: -0.803
Ov4Carbo; carboplatin co-treatment 0 µM
  log2 surviving fraction: -1.92
Ov4Carbo; carboplatin co-treatment 5 µM
  log2 surviving fraction: -0.857

## CN(CCOc1ccc(NS(C)(=O)=O)cc1)CCc1ccc(NS(C)(=O)=O)cc1 [Dofetilide (Tikosyn)]
OVCAR4; carboplatin co-treatment 0 µM
  log2 surviving fraction: 0.974
OVCAR4; carboplatin co-treatment 5 µM
  log2 surviving fraction: -0.786
Ov4Carbo; carboplatin co-treatment 0 µM
  log2 surviving fraction: 0.431
Ov4Carbo; carboplatin co-treatment 5 µM
  log2 surviving fraction: 0.17

## CC(C(=O)O)c1cccc(Oc2ccccc2)c1 (stereo not drawn) [Fenoprofen calcium]
OVCAR4; carboplatin co-treatment 0 µM
  log2 surviving fraction: 0.956
OVCAR4; carboplatin co-treatment 5 µM
  log2 surviving fraction: 1.13
Ov4Carbo; carboplatin co-treatment 0 µM
  log2 surviving fraction: 0.916
Ov4Carbo; carboplatin co-treatment 5 µM
  log2 surviving fraction: -1.19

## CC(C)CCC[C@@H](C)[C@H]1CC[C@H]2[C@@H]3CC=C4C[C@@H](O)CC[C@]4(C)[C@H]3CC[C@]12C [Cholesterol]
OVCAR4; carboplatin co-treatment 0 µM
  log2 surviving fraction: -0.261
OVCAR4; carboplatin co-treatment 5 µM
  log2 surviving fraction: -0.00589
Ov4Carbo; carboplatin co-treatment 0 µM
  log2 surviving fraction: 0.765
Ov4Carbo; carboplatin co-treatment 5 µM
  log2 surviving fraction: -0.169

## CC1=CC(=O)c2ccccc2C1=O [Menadione]
OVCAR4; carboplatin co-treatment 0 µM
  log2 surviving fraction: -8.36
OVCAR4; carboplatin co-treatment 5 µM
  log2 surviving fraction: -0.32
Ov4Carbo; carboplatin co-treatment 0 µM
  log2 surviving fraction: -0.979
Ov4Carbo; carboplatin co-treatment 5 µM
  log2 surviving fraction: 0.301
